Laboratory results from PubChem BioAssay (NCI).
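Growth conditions: 96-well plates. Treatment: test compound, 48 hours, 5 concentrations. Analysis: linear interpolation between bracketing concentrations; unreached endpoints set to highest concentration. GI50 marks 50% less growth. TGI: total growth inhibition.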

Test system: NCI-H322M lung
Assay: NCI anticancer screen, dose series, 48 h

| Compound | TGI [µM] | GI50 [µM] |
| --- | --- | --- |
| N/C(CC(=O)NOC(=O)c1ccccc1)=N/OC(=O)c1ccccc1 | > 100 |  |
| CCCCCCCCc1cc(O)ccc1O | 41.2 | 18.3 |
| CC1=NN(c2nc(N)nc(-c3cc4ccccc4oc3=N)n2)C(C)(C)C1 | 42.7 |  |
| C=Cc1cc(OC)c2c(c1)c(=O)oc1c2cc(OC)c2c(O)ccc(C3OC(C(C)O)C(O)C3O)c21 (centres undefined) | 0.0687 | 0.0147 |
| CC1=C(SCCC(=O)OC(C[Se]C2=C(C)C(=O)c3ccccc3C2=O)C(=O)NC(C)(C)C)C(=O)c2ccccc2C1=O (centres undefined) | 1.35 | 0.326 |
| CC(C)(CO)CNc1cc(Cl)nc(N)n1 | > 100 |  |
| Nc1ccn(CC(O)c2cc3ccccc3[nH]2)c(=O)n1 (centres undefined) | > 100 |  |
| C[C@@H](C[C@H](CCO)c1ccccc1)c1ccc2ccccc2c1 | 2.99 | 1.62 |
| Cc1ccc2c(c1)Nc1ccccc1P2(=O)O | > 100 |  |
| O=C(O)C1CSC2(CCCN(Cc3ccccc3)C2)N1 (centres undefined) | > 100 |  |
| Fc1ccc2c(c1)nc1n2C(c2c(F)cccc2F)SC1 (centres undefined) | > 100 |  |
| CN1CCN(c2nc3cc(F)ccc3n3cccc23)CC1 | > 100 |  |
| COC(=O)C(/C(=N\O)C(=O)Nc1ccc(Br)cc1)c1nc2ccccc2[nH]c1=O (centres undefined) | > 100 |  |
| COc1ccc2c(c1)[nH]c1c3ccc(OC)cc3oc(=O)c21 | > 100 |  |
| O=C1C(OC(=O)c2ccccc2)=C(c2ccc(O)cc2)C(=O)C(OC(=O)c2ccccc2)=C1c1ccc(O)cc1 | > 100 |  |
| Cc1ccsc1/C=N/Nc1cc(C)c2ccccc2n1 | 48.9 |  |
| Nc1ccn(C2CC3OCC3O2)c(=O)n1 (centres undefined) | > 100 |  |
| O=C1C(=Cc2ccc(F)cc2)C(=O)c2ccccc21 | > 100 |  |
| COc1ccc(C2=Nc3c(nc(SC)[nH]c3=O)NC(c3ccccc3)C2)cc1 (centres undefined) | > 100 |  |
| COc1ccc(/C=C2/CSC/C(=C/c3ccc(OC)c(OC)c3)C2=O)cc1OC | 56.5 |  |
| CC1=C2C3OC(=O)C(C)C3C(O)C[C@@]2(C)C(=O)CC1 (some centres undefined) | > 100 |  |
| COC(=O)/C=C\C(C#N)(C#N)N=Cc1ccc(Br)cc1 | 33.8 |  |
| CCOC(=O)Cc1cc(=O)[nH]c(-n2[nH]c(C)c(CCO)c2=O)n1 | > 100 |  |
| CCOP(=O)(Cc1nc(C#N)c(N)o1)OCC | > 100 |  |
| CCc1n[nH]c(=O)[nH]1 | > 100 |  |
| CC(C)N1[C@@H]2CCCC[C@H]2N(C(C)C)[P+]1=O | > 100 |  |

| Compound | TGI [µM] | GI50 [µM] |
| --- | --- | --- |
| CC1/C(=N/O)CC(c2ccccc2)N(N=O)C1c1ccccc1 (centres undefined) | > 100 |  |
| OCC(S)CS.[Bi] (centres undefined) | 40.5 |  |
| CC(C)=CCC[C@@H](C)C1=C(O)C(Nc2ccccc2)=C(C)C(=O)C1=O | > 100 |  |
| N=C1C=C(N)C(=O)c2ccccc21 | 3.17 | 1.74 |
| C[C@H]1CCC2C(OC(=O)[C@@H]2CN(C)C)[C@]2(C)C(=O)C=CC12O (some centres undefined) | 39.7 |  |
| O=C(CCc1cc(-c2ccc(F)cc2)n[nH]1)N(Cc1ccccc1)Cc1ccccc1 | > 100 |  |
| Cn1cc(-c2csc(-c3cn(C(=O)OC(C)(C)C)c4ccccc34)n2)c2cccnc21 | 38.7 | 14.3 |
| C=C(Cl)CN1c2ccccc2C=Cc2ccccc21 | > 100 |  |
| CC(C)OP(=O)(OC(C)C)/C(C#N)=C/c1c[nH]c2ccccc12 | > 100 |  |
| C=C(CN1CCN(c2ccc(F)c(Cl)c2)CC1)c1ccc(C(=O)Nc2ccccc2N)cc1 | > 100 | 17.8 |
| COC(=O)C(C)Oc1ccc(O)cc1 (centres undefined) | > 100 |  |
| O=[N+]([O-])c1ccc(Nc2cccc3c2[nH]c2c(-c4ccccc4)nccc23)c([N+](=O)[O-])c1 | > 100 |  |
| CSc1nc(-c2ccccc2)nc(=[N+]2CCOCC2)s1 | > 100 |  |
| Nc1c(C(=O)O)nnc2cc(Cl)ccc12 | > 100 |  |
| O=S(=O)(O)c1cc(N=[N+]([O-])c2ccc(N=Nc3ccccc3)cc2S(=O)(=O)O)ccc1/C=C/c1ccc(N=[N+]([O-])c2ccc(N=Nc3ccccc3)cc2S(=O)(=O)O)cc1S(=O)(=O)O | > 100 |  |
| COC(=O)C#CC(N)=O | > 100 |  |
| O=C(O)c1cccc(S(=O)(=O)NN2C(=O)CSC2c2c(O)ccc3ccccc23)c1 (centres undefined) | 76.5 |  |
| COc1ccc(F)cc1-c1ccnc2[nH]c(C3=CCN(C4CCC(CC(=O)O)CC4)CC3)cc12 (centres undefined) | > 100 | 0.287 |
| O=C(Cn1c(=O)oc2ccc(C(=O)c3cccc(Cl)c3)cc21)c1ccccc1 | > 100 |  |
| CC[C@@H](C(=O)[C@@H](C)[C@@H](O)[C@H](C)[C@@H]1O[C@@H]([C@@H](CC)C(=O)O)CC[C@@H]1C)[C@H]1O[C@]2(C=C[C@@H](O)[C@]3(CC[C@@](C)([C@H]4CC[C@](O)(CC)[C@H](C)O4)O3)O2)[C@H](C)C[C@@H]1C | 17.9 | 1.92 |
| Cc1ccc(C)c(NC(=O)C(=O)Nn2c(=S)[nH]c3ccccc3c2=O)c1 | > 100 |  |
| CC(=O)OC1=C(CC(C)(C)C)C(=O)c2ccccc2C1=O | > 100 |  |
| CCOc1ccccc1NC(=O)C1=C(C)NC(C)=C(C(=O)Nc2ccccc2OCC)C1c1cccc([N+](=O)[O-])c1 | > 100 |  |
| CN1C/C(=C\c2cccs2)C(=O)/C(=C/c2cccs2)C1 | 68.2 |  |
| Cc1oc2nc(N(C)C)n3cnnc3c2c1C | > 100 |  |
| COc1ccc(/N=N/C(=NNC(=O)c2ccc(C)cc2)c2ccc(N(C)C)cc2)cc1 | > 100 |  |

| Compound | TGI [µM] | GI50 [µM] |
| --- | --- | --- |
| N#CC(C#N)C(c1ccccc1)c1ccccc1 | > 100 |  |
| NC1=Nc2ccccc2Sc2ccccc21 | > 100 |  |
| N=C(N)c1ccc(-c2ccc(-c3ccc(Cl)cc3Cl)s2)nc1 | 3.12 | 1.74 |
| COc1cc2nc(-c3cccs3)nc(N3C(c4cc(OC)c(OC)c(OC)c4)=NNC(=O)c4ccccc43)c2cc1OC | 73.2 |  |
| c1ccc(-c2cc3n4c(-c5ccccc5)nn(-c5ccccc5)c4cnc-3n2)cc1 | > 50 | > 50 |
| CNc1nc(-c2ccc3c(N)n[nH]c3c2)cc(N2C[C@@H](C(=O)NC3CCCCC3)CC[C@H]2C)n1 | 19.3 | 4.95 |
| C=CCO[C@H]1CC[C@@]2(C)C(CC[C@]3(C)C2CC=C2[C@@H]4[C@@H](C)C(C)CC[C@]4(C(=O)O)CCC23C)C1(C)C (some centres undefined) | 31.4 |  |
| C=C1C(=O)OC2(C)CCC1CC1OC1(C)CCC=C(C)CCC2O (centres undefined) | > 100 |  |
| CN(C)C(=S)/N=c1\ss/c(=N\S(=O)(=O)c2ccccc2)n1C | > 100 |  |
| Nc1ncc2c(n1)-c1ccccc1OC2 | > 100 |  |
| COC(=O)[C@@H](C)C[C@H](Cc1ccccc1)NC(=O)c1csc([C@@H](C[C@H](C(C)C)N(C)C(=O)[C@@H](NC(=O)[C@H]2CCCCN2C)C(C(F)(F)F)C(F)(F)F)OC(C)=O)n1 | > 16.7 | 0.0745 |
| COc1ccc(S(=O)(=O)Nc2cc(Sc3cccc4cccnc34)c(O)c3ccccc23)cc1 | 16.2 | 3.41 |
| CCOc1ccccc1N=Cc1c2ccccc2cc2ccccc12 | > 77.7 |  |
| CCC(C)N1CN(c2ccccc2)C2(CCN(CCCC3(c4ccc(F)cc4)OCCO3)CC2)C1=O (centres undefined) | 33.2 |  |
| CC1CN=C(c2ccc(CN3CCC(CCCC4CCN(Cc5ccc(C6=NCC(C)N6)cc5)CC4)CC3)cc2)N1 (centres undefined) | 89 |  |
| O=C1c2cc3ncsc3cc2C(=O)c2c(O)ccc(O)c21 | > 100 |  |
| N#C/C(=C1\OC(N)=C(c2ccc(Cl)cc2)C1=O)c1ccc(Cl)cc1 | 42.7 |  |
| O=c1onc(Nc2ccccc2)n1-c1ccccc1 | > 100 |  |
| COc1cccc(N(CN2C(=O)CCC2OC)C(C)=O)c1 (centres undefined) | > 100 |  |
| Cc1nc(-n2nc(-c3ccccc3)cc2-c2ccccc2)sc1C(=O)/C=C/c1cccc([N+](=O)[O-])c1 | 63.6 |  |
| C=CCCC(=O)CC(=O)OCc1ccccc1 | > 100 |  |
| Cc1cc(OCc2nnc3n2N=C(c2cc(F)c(Cl)cc2Cl)/C(=C/c2ccc(-c4ccc(Cl)cc4)o2)S3)ccc1Cl | > 50 |  |
| CC(C)(C)CC(C)(C)NCC(O)COc1ccc(C(C)(C)c2ccc(OCC(O)CNC(C)(C)CC(C)(C)C)cc2)cc1 (centres undefined) | 2.73 |  |
| COc1cc2c(=O)n(CC3CCCCC3)c3c4cc[nH]c4ncc3c2cc1OC | > 50 | 6.87 |
| CC1=C(C(=O)NCc2ccccc2)C(c2ccco2)C(C(=O)NCc2ccccc2)=C(C)N1 | > 100 |  |
| O=C(N/N=C/c1ccc(N(CCCl)CCCl)cc1)c1ccc(C(=O)N/N=C/c2ccc(N(CCCl)CCCl)cc2)cc1 | > 100 | 34 |
